{"source": "PubChem BioAssay AID624417", "about": "(National Center for Advancing Translational Sciences (NCATS), 2012)", "note": "The campaign covered roughly 410,000 compounds. About 6,400 (1.6%) were called active. The shares of active, inactive and inconclusive entries below differ from those in the screen. Calls come from the whole dose curve; as a rule, active = well fitted inhibition curve with a large enough effect; inconclusive = small, poorly fitted or top-dose-only effect; inactive = no such curve, though single readings can be large or run the other way. Potencies of inconclusive entries are left out as doubtful fits. % is set by controls: 0 for no effect and ±100 for the full control effect; potency is the fitted concentration of half-maximal effect; tags give direction and shape of the fitted curve.", "data": [{"target": "Glucagon-like peptide 1 receptor (Homo sapiens) (UniProt P43220)", "sequence (P43220 whole entry, looked up)": "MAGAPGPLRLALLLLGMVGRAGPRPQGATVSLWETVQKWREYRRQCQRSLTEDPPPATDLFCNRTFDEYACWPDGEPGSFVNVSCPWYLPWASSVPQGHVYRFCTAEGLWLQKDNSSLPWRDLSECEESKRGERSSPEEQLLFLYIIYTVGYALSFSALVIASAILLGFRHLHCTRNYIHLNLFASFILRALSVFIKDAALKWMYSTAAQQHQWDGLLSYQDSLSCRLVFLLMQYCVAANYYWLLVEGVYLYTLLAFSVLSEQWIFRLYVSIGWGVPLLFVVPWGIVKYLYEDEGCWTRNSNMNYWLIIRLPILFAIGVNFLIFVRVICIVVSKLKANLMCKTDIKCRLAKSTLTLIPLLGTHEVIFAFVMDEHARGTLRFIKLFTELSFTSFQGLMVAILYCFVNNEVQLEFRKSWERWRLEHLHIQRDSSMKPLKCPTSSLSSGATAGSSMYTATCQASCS", "assay": "qHTS of GLP-1 Receptor Inverse Agonists (Inhibition Mode); note: nearly all actives have a fitted effect of over 55% in size", "conditions": "HEK293 GLP-1R CRE-luciferase, luminescence, 24 h, GLP-1R form is constitutively active; activity change, negative = inhibition: at 38.3 µM (top of the series) unless noted", "summary_of_the_method": "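Inverse agonism was detected as reduced cAMP-driven luciferase luminescence after 24 h compound treatment. The cells were HEK293 clones expressing constitutively active human GLP-1R with the reporter. Reporter-only and GPR119 cell lines served as counterscreen controls.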", "values": [{"smiles": "COc1cccc(CNS(=O)(=O)c2cn(C)cn2)c1", "activity change, negative = inhibition": "inactive: -3.41%"}, {"smiles": "COC(=O)[C@H](Cc1c[nH]c2ccccc12)NC(=O)CCCc1c[nH]c2ccccc12", "Potency": "inconclusive [inhibitor, single point]"}, {"smiles": "S=C1NC[C@H](c2ccccc2)N1CCCCC1CCCCC1", "Potency": "inconclusive [inhibitor, partial curve, poor fit]"}, {"smiles": "CCOC(=O)C1(CC2CCCCO2)CCN(C(=O)Nc2ccc(C)c(C)c2)CC1", "note": "(configuration not stated)", "Potency": "inconclusive [inhibitor, single point]"}, {"smiles": "Cc1ccc(COC(=O)c2cc(S(=O)(=O)N3CCCCC3)ccc2N2CCOCC2)cc1", "Potency": "inconclusive [inhibitor, partial curve, poor fit]"}, {"smiles": "CN1CCN(C(=S)NC(=O)c2cccc([N+](=O)[O-])c2)CC1", "Potency": "inconclusive [inhibitor, single point]"}, {"smiles": "Cc1cc(C(=O)NN=C2CCCC2)c2ccccc2n1", "Potency": "inconclusive [inhibitor, partial curve, poor fit]"}, {"smiles": "Cc1ccc(S(=O)(=O)Nc2cccc3ncccc23)cc1", "activity change, negative = inhibition": "inactive: 2.39%"}, {"smiles": "CC(C)Sc1nnc([C@H](Cc2c[nH]c3ccccc23)NC(=O)OC(C)(C)C)o1", "Potency": "inconclusive [inhibitor, single point]"}, {"smiles": "CN(C)CCCN(C(=O)c1ccc(S(=O)(=O)N2CCc3ccccc32)cc1)c1nc2ccc(F)cc2s1", "Potency": "inconclusive [inhibitor, partial curve, poor fit]"}, {"smiles": "CCOc1ccc(N(CC(=O)N2CCC(Cc3ccccc3)CC2)S(C)(=O)=O)cc1", "Potency": "inconclusive [inhibitor, partial curve, poor fit]"}, {"smiles": "O=C(Nc1cccc(C(F)(F)F)c1)C1CCN(S(=O)(=O)c2cccs2)CC1", "Potency": "inconclusive [inhibitor, single point]"}, {"smiles": "C=C(C)Cn1c(SCC(=O)c2ccccc2)nc2sc3c(c2c1=O)CCCC3", "Potency": "inconclusive [inhibitor, full curve, poor fit]"}, {"smiles": "CC(=O)Nc1c(C)nn(-c2ccccc2)c1N1CCC(C(=O)NCc2ccc(F)cc2)CC1", "activity change, negative = inhibition": "inactive: 7.18%"}, {"smiles": "CC1=CC(=O)C(C(C)C)=C/C1=C(\\c1cc(C(C)C)c(OP(=O)(O)O)cc1C)c1ccccc1C(=O)O", "activity change, negative = inhibition": "inconclusive: -85.6% [inhibitor]"}, {"smiles": "CC(=O)c1ccc(NC(=O)CSc2nnc(N)s2)cc1", "activity change, negative = inhibition": "inactive: 13%"}, {"smiles": "COc1ccccc1CNC(=O)c1cccc(S(=O)(=O)N2CCN(c3ccc(F)cc3)CC2)c1", "Potency": "inconclusive [inhibitor, single point]"}]}]}
